# Assay results taken from PubChem BioAssay AID463173 (ICCB-Longwood Screening Facility, Harvard Medical School, 2010).
# Among all 52,000 compounds or so, about 4,300 (8.3%) were called active. Rule as the data show it: active = survival mostly below about 52% (no sharp cut-off); inactive = mostly above about 56%. The list shows a part of the results.
# Tested on: DeltatarO mutant
# Assay: growth inhibition of S. aureus wild type versus tarO mutant, primary screen, teichoic acid synthesis inhibitors, RN4220, OD600 (AID 463173)
# Settings: OD600, 18 h, active compounds read low, screened at 18.75 µg/mL (by protocol)
row,SMILES,survival
1,CC(=O)c1ccc(NC(=O)c2nc3ccccc3nc2N2CCCCC2)cc1,inactive: 95%
2,COc1ccc(S(=O)(=O)Nc2cccc(-c3ccc(N4CCCC4)nn3)c2)c(OC)c1,inactive: 92%
3,COc1ccc(OC)c(NS(=O)(=O)c2ccc3c(c2)C(C)(C)C(=O)N3C)c1,active: 48%
4,COc1cc(Cl)c(C)cc1NC(=O)C1CCN(c2nc3ccccc3n3cccc23)CC1,inactive: 56%
5,Cc1ccc(C)c(NC(=O)N2CCN(C(=O)c3nsc4ccccc34)CC2)c1,inactive: 89%
6,COc1cccc(CNC(=O)c2ccc3c(c2)c(C)c(C)n3Cc2ccccc2)c1,inactive: 90%
7,COc1ccc(CNC(=O)c2cc3cc4cc(OC)ccc4nc3o2)cc1,inactive: 81%
8,Cc1nnc(N2CCC(C(=O)NC3CCCCC3)CC2)c2nn(-c3ccccc3)c(C)c12,inactive: 82%
9,NC(=O)C1CCN(C(=O)c2ccc(NC(=O)c3nsc4ccccc34)cc2)CC1,inactive: 86%
10,CCOc1ccccc1N(CC)C(=O)Cn1ncc2c([nH]c3ccccc32)c1=O,active: 46%
11,CCOc1ccc(CCNC(=O)c2cnc3c(-c4ccc(F)cc4)c(C)nn3c2C)cc1OCC,inactive: 134%
12,Cc1ccc(NC(=O)Cn2c(=O)n(Cc3ccco3)c(=O)c3sc4ccccc4c32)cc1C,inactive: 133%
13,COc1ccc2c(c1)sc1ncc(C(=O)NCc3ccc(OC(C)C)cc3)c(=O)n12,inactive: 77%
14,O=C(NCCc1ccc(Cl)cc1)c1cnc2sc(N3CCCCC3)nn2c1=O,inactive: 101%
15,COc1ccc(-c2cc(C(F)(F)F)nc(SCCC(=O)Nc3cc(C)ccc3O)n2)cc1,inactive: 54%
16,COC(=O)CNC(=O)c1c(-c2ccccc2)noc1C,inactive: 104%
17,CC(C)C(=O)Nc1cccc(S(=O)(=O)c2cccc(NC(=O)C(C)C)c2)c1,inactive: 75%
18,CCc1ccc(-c2[nH]c3c(c2-c2sc(C)c(C(=O)OC)c2O)c(=O)[nH]c(=O)n3C)cc1,active: 23%
19,CCOc1ccc(CCNC(c2cccc(Cl)c2)c2nnc(-c3ccccc3)o2)cc1OCC (configuration not stated),inactive: 95%
20,Cc1coc2c(C)c3oc(=O)c(CCC(=O)NCCc4ccccc4)c(C)c3cc12,inactive: 59%
21,Cc1nn(C(=O)c2ccc(Br)cc2)c(C)c1S(=O)(=O)N1CCOCC1,inactive: 79%
22,COc1cccc(/C=C/c2nc(C#N)c(NCCc3ccc(OC)c(OC)c3)o2)c1,active: 41%

row,SMILES,survival
1,Cn1c(NCCO)nc2c1c(=O)n(Cc1cccc(F)c1)c(=O)n2C,inactive: 70%
2,CCCCN1C(=O)C(O)(c2c[nH]c3ccccc23)c2cc(Br)ccc21 (configuration not stated),inactive: 50%
3,CCCCN(CCCC)S(=O)(=O)c1ccc2oc(C(=O)NCc3ccc(C)cc3)c(C)c2c1,inactive: 83%
4,CCn1c(=O)c(C(=O)Nc2ccc(C(C)=O)cc2)nc2ccccc21,inactive: 81%
5,COc1cc(NC(=O)c2cccc3c2C(=O)N(C2CCCCC2)C3)cc(OC)c1,inactive: 90%
6,O=C(Cn1c(=O)oc2ccccc21)Nc1ccc(C(=O)O)cc1,inactive: 76%
7,CCOc1ccccc1NC(=O)CSc1nc2cc(OC)c(OC)cc2c2nc(-c3ccccc3)nn12,inactive: 69%
8,CCCC(C(=O)NC1CCCC1)N(C(=O)Cn1nnc(-c2ccc(C)o2)n1)c1ccccc1 (configuration not stated),inactive: 89%
9,Oc1c(C(c2ccc(Cl)cc2)N2CCC3(CC2)OCCO3)sc2nc(-c3ccco3)nn12 (configuration not stated),active: 32%
10,O=C1CN=C(Nc2ccccc2)N1c1ccccc1,inactive: 100%
11,COC(=O)c1sc(NC(=O)c2ccco2)c(C#N)c1C,inactive: 82%
12,O=C(NC1CCCCC1)C(c1ccccn1)N(C(=O)Cn1nnc(-c2ccccc2)n1)c1ccc2c(c1)OCO2 (configuration not stated),inactive: 98%
13,CC1CCCCN1S(=O)(=O)c1ccc(C(=O)Nc2sc3c(c2C(N)=O)CC(C)(C)NC3(C)C)cc1 (configuration not stated),inactive: 67%
14,Cc1ccc(NC(=O)CCS(=O)(=O)c2cccc3nonc23)cc1Cl,inactive: 71%
15,Cc1ccccc1Nc1c(-c2ccco2)nc2c(C)cccn12,active: 25%
16,Cc1n[nH]c(C)c1S(=O)(=O)N(CC(=O)Nc1ccc(C(F)(F)F)cc1)c1ccc(C(C)C)cc1,active: 46%
17,Cc1ccc(CS(=O)(=O)c2ncc(Cl)c(C(=O)Nc3nc4ccc(C)cc4s3)n2)cc1,active: 6%
18,NCCS(=O)(=O)N1CCCC1,inactive: 88%
19,Cc1ccc(C)c(CN2C(=O)c3ccccc3S(=O)(=O)c3ccc(C(=O)N4CCN(c5ccccc5)CC4)cc32)c1,inactive: 79%
20,C#CCSc1nc2sc3c(c2c(=O)n1Cc1ccccc1)CCCC3,active: 33%
21,CCOCCc1nn2c(=O)cc(COC(=O)c3ccccc3NC(=O)C3CCCCC3)nc2s1,inactive: 102%
22,O=C(NCCn1cc(SCc2ccc(Cl)cc2)c2ccccc21)c1cccs1,inactive: 62%

row,SMILES,survival
1,COc1cccc(-c2nc(SCC(=O)Nc3ccc4c(c3)OCCO4)c(-c3ccccc3)[nH]2)c1,inactive: 54%
2,COc1cc(OC)c(N(C)C(=O)CCNC(=O)Cn2cnc3ccccc3c2=O)cc1Cl,inactive: 70%
3,CCN(CC)C(=O)C1CCN(Cc2ccccc2F)CC1,inactive: 99%
4,Cc1cccc(NC(=O)Cn2c(=O)n(CCCS(=O)(=O)C3CCCCC3)c(=O)c3ccccc32)c1,inactive: 71%
5,CCCCN(CCCC)CCNC(=O)Cn1nc(CC)n2c(cc3sc(C)cc32)c1=O,inactive: 85%
6,O=S1(=O)c2ccccc2N(Cc2cccc(C(F)(F)F)c2)c2ccccc21,inactive: 95%
7,CCOC(=O)c1ccc(-n2c(C)nc3c(cnn3-c3ccc(Cl)cc3)c2=O)cc1,inactive: 67%
8,CCOCCCNC(=O)c1[nH]c2cc(C)ccc2c1Sc1ccc(Cl)cc1,inactive: 85%
9,Cc1ccc(-c2onc(C)c2C)cc1S(=O)(=O)N1c2ccccc2CC1C (configuration not stated),inactive: 79%
10,COc1ccc(C(=O)N2c3ccccc3C(C)(c3ccc(Cl)cc3)CC2(C)C)cc1 (configuration not stated),active: 11%
11,COc1ccc(CCNC(=O)c2c(O)nc3c(C)cccn3c2=O)cc1,inactive: 54%
12,Cc1cc(C)c2[nH]c(=O)c(CN(CCN3CCOCC3)C(=O)Nc3ccc(F)cc3)cc2c1,inactive: 57%
13,Cc1c(C)n(C)c2ccc(C(=O)NCCCN3CCCCC3C)cc12 (configuration not stated),inactive: 107%
14,O=C(c1cc2c(s1)-c1ccccc1OC2)N1CCN(c2ccccc2F)CC1,active: 41%
15,Cc1ccc(C)c(NC(=O)Cn2cc(C(=O)c3ccco3)c3ccccc32)c1,inactive: 64%
16,CCCCN(CC)CCCNC(=O)c1nn(C)c2c1CS(=O)(=O)c1ccccc1-2,inactive: 88%
17,CCOC(=O)C1CCCN(c2cc(C)nc3c(-c4ccccc4OC)c(C)nn23)C1 (configuration not stated),inactive: 102%
18,COc1cccc(Cn2c(CNC(=O)Cc3cccc(C)c3)nc3cccnc32)c1,inactive: 88%
19,COc1ccc(OCC2Cn3c(nc4c3c(=O)n(C)c(=O)n4C)O2)cc1 (configuration not stated),inactive: 79%
20,CC(C)N(C(=O)CSc1nnc(NC(=O)c2ccco2)s1)C(C)C,inactive: 50%
21,COc1ccccc1-c1nc2c(c(SCC(=O)Nc3ccc(C)c(C)c3)n1)Cc1c(CO)cnc(C)c1O2,inactive: 61%
22,Cc1ccc(NC(=O)c2cccc3c2C(=O)N(C2CCCCC2)C3)c(C)c1,inactive: 116%

row,SMILES,survival
1,COc1ccc(N(CC(=O)Nc2cccc(Cl)c2C)S(=O)(=O)c2c(C)nn(C)c2C)cc1,inactive: 62%
2,COc1ccc(C2=C(C)C(=NCCCN3CCN(c4cc(C)ccc4C)CC3)NS2(=O)=O)cc1,inactive: 87%
3,Cc1ccc(S(=O)(=O)CC(=O)Nc2sc3c(c2C#N)CCCC3)cc1,inactive: 119%
4,CCn1cc(CCC(=O)NCc2ccccc2OC)c2ccccc21,inactive: 66%
5,Cc1ccc(CSCC(=O)N2CCN(c3ccccc3F)CC2)cc1,inactive: 63%
6,CCOC(=O)Cn1c(=O)n(C2CCCCC2)c2nc(-c3cccc(F)c3)nc(C(N)=O)c21,inactive: 83%
7,CC1=C(C(=O)Nc2ccccc2)C(c2cccnc2)n2nc(SCc3ccccc3Cl)nc2N1 (configuration not stated),inactive: 179%
8,Cc1ccc(S(=O)(=O)c2cc3cc(C(=O)O)ccc3oc2=O)cc1,inactive: 120%
9,O=C(Nc1ccc(Cl)cc1)N1CCC(c2nc(-c3ccc(F)cc3)no2)CC1,inactive: 54%
10,CC(=O)NS(=O)(=O)c1ccc(N=NN2CCCCC2)cc1,inactive: 105%
11,CCCCCOc1c(Cl)cc(C(=O)N(Cc2ccc(C)o2)C2CCS(=O)(=O)C2)cc1Cl (configuration not stated),inactive: 71%
12,COc1ccc(C)c2sc(N(Cc3cccnc3)C(=O)C3CCCCC3)nc12,inactive: 83%
13,CCCN(CCC)CCCNC(=O)C1CCN(S(=O)(=O)CC)CC1,inactive: 109%
14,CCOC(=O)c1ccc(N2C(=O)c3n[nH]c(-c4ccco4)c3C2c2ccc(O)cc2)cc1 (configuration not stated),inactive: 40%
15,COc1ccc(C)cc1NC(=O)c1c(C)oc2ncn(CC(C)C)c(=O)c12,inactive: 79%
16,CCCn1cc(S(=O)(=O)c2ccccc2)c(=O)c2cc(F)c(N3CCCC(C)C3)cc21 (configuration not stated),inactive: 81%
17,O=c1[nH]nc(SCc2cccc3ccccc23)c(=O)[nH]1,inactive: 94%
18,Cc1cc2c(cc(C(=O)OC(C(=O)NC3CCCC3)c3ccccc3F)n2C)o1 (configuration not stated),inactive: 98%
19,CCOc1ccc(NC(=O)c2nn(C)c3c2CS(=O)(=O)c2ccccc2-3)cc1,inactive: 60%
20,CCOc1ccccc1NC(=O)Cn1c(=O)n(-c2ccc(F)cc2)c(=O)c2sc3ccccc3c21,inactive: 82%
21,COc1ccc(CCNC(=O)CCCn2c(=O)c3ccccc3n(CC(=O)Nc3cc(Cl)ccc3C)c2=O)cc1OC,inactive: 69%
